Test results: the RNAGym collection of RNA variant scans (doi:10.7554/elife.90254)
The source gives no read counts; variants with many changes may rest on few reads.

B1: LINE1-full (parent)
chain: UACGUAGGUGGUUUUCCCCUGAUAGUGCUAAGGGGGCCUGGAAGUUUGGACUGGGCAGAGCUCAACACAGCGUGGCAAAGUGGCUGUGGCUAGACUGCCUCUCUGGAUUCCUCGUCACUCAGCAGGGCAUCUCUGAGAGAAAUGCC

Variants of: B1
Assay: self-cleavage, relative activity (ratio to wild type); higher = more cleavage; in vitro, sequencing; the parent is a self-cleaving ribozyme

Variant | self-cleavage
U47C A117U C145A | 1.65
U45G G80A U91A | 0.71
U13A A78G U96C | 0.1
G33U C61A A77G U81C A94G A141G | 0.04
A121G U132C A136U | 1.15
U14C A22G G36A A67G | 0.81
G33A U45G A57G | 0.67
U45C G55A A142G | 0.2
A77G A92U A94G G122C U143A | 0.14
U20C A31G A138G | 1.58
A64G A79G G114A | 0.38
U9C A136G A141G | 0.99
U13C U45C A64U C116U | 0.29
U13A U46C G70A | 0.15
U26A U39C A57U | 0.03
A43G G60A G97A U100A A136U | 0
U1A U9C U108A A117G | 1.41
A22G A92G U100C A136G | 0.46
A64G A136U A142G | 0.14
U23C A31G A67U | 0.11
U1C U73A U85C | 0
U5A U62A A67G | 0.2
U47C A50G C128U A141G | 1.29
A77G U130C A136G | 2.7

Variant | self-cleavage
A22U U23A U132C | 1.2
A2G G8C U100A U115A U143C | 0.66
A2G U12G U15C U130C A140G | 2.3
C16U U20C U132C A142U | 0.98
U23C A64U C128A A138G | 0.44
U14C A22U U26A | 1.14
U15C U39A A65G U85C C90A A136G | 0.09
A50U U134A A140G | 0.16
U23C A57G U130A | 1.58
C63U A69U U112A | 0.04
U29C U96C A117U | 0.11
U14C A94G U134A A141G | 0.41
U12C U14C A94G | 0.92
U12G A22G U85C | 0.17
U52A A94G U109C | 0.27
U12C U23A G36C U100A | 0.55
U52C A65G U73A | 0
C19U A30U C51U A59G | 0.2
U9C C113A U134C | 1.97
U23A C28A U87A U102C | 0.07
A65G U85C U100C U109C G125U U143C | 0
U45G A124U A140G | 1.03
U81C U109A G127A | 0.99
U12C U46C G55A | 0.92

Variant | self-cleavage
A77G A78G G82A A142G | 2.84
U9A U13C U73G | 0.57
G7U U47A A77U A79G A129U U130C | 1.16
U100C C110U U119C | 1.56
U46C U47C A77G | 2.96
C28U U39A A92G | 0.08
C3U A136G A138G | 1.11
U1C G36U U102C U112C C113A | 0.92
A6G A142G U143C | 1.02
U13C U15C U102C | 0.21
C99A A107G C120U | 0.72
U14C A65G U100C | 0
U13A A78G A79G U115A | 0.78
A2G U47C A121G | 2.04
U20A A94G U119A | 0.2
U26C G35U U73C U87A A142G | 0.09
A59U A64G C123U A140U | 0.09
U14C U23G A24G | 0
G48A U85C U132C | 0.09
U46C U100C A117U | 1.66
A6G A22G C71U A121U A140G | 0.55
C84G A141G U143C | 0.05
U26A U85C A138G | 0.15
A42G U47A A94U | 0.17

Variant | self-cleavage
G32A A65G A141G | 0.05
C38G U81A G82U G97U | 0.21
G25U U112C A136U | 1.09
U47A A64G G88A | 0.05
G7A G88A U130A U143C | 0.07
A59G G88A U102C | 0
U12C U23A A136G | 1.34
U12C A57G C146U | 0.85
U1A A2G U46C | 0.56
G27A A42U G44U U115C | 0.96
C71U U96G U119C | 0.06
U5A C18G G44A U45C C113A A121G | 0.86
A42U A65U U85C C90A U104G U115C | 0
A67U A69G C90U | 0.06
A2G U12A U52A U115C | 0.47
A43U U46C U109C A124C | 1.31
A24U U45A A67G U81C A117U | 0.3
U26C U39C G89C A92G U108G | 0
U45C G60C A64G A69G | 0
A43G U52C U112C | 1.26
G33A U73A A124G | 0.63
U62C A65U A79G | 0.16
U46A A57U A78U U115A A142G | 0.15
U9C G40A A79G A94U | 0.28

Variant | self-cleavage
U45C A64U U134C | 0.4
C17A U45C A64G | 0.14
U13A A78G A124G | 0.58
U45C U46A U52C U100C | 2.3
G35C A79G U81A A92C U109A | 0.39
U9A U13C C120A | 0.83
U12A A22G C120U | 0.97
U52A A67U U119C A138G | 0.61
G36C U52G G88A | 0.07
U20C U52C A67G | 0.88
A64G A69G C95U | 0.08
U13C A67G A79G U102C | 0
U12C U15C U26A A64G U96A | 0
A57U U87C C99U A140G | 0.06
U15A A129U G144A | 0.82
A64G U85C A124G | 0.15
A43U U102C U104A | 1.27
U47A U73C U109A G139U | 1.31
C19U U45A A64U U132A | 0.66
A64C U73A U104C A117G A124U | 0.68
U14C A24G U29C G72A G82A | 0.72
U12G G21U A67U C76U U85A | 0.07
A57U A77G A138G | 0.19
U14C U26A A140U | 0.68

Variant | self-cleavage
U20A G33A A136U | 1.01
A42G G72A U115C | 1.83
U13G U39A U85C | 0.71
U14C G74A A117U | 0.68
G32A A78G U91C G139A | 0.07
U45G A67U U112A A124G | 0
U5C U112C A136U | 1.64
A69G A94G C128U A129G A142G | 0.23
U13C U23G U39A U91A | 0.71
G54A G72U U108C | 0.83
U13C A79G A121U | 1.98
U14C U45C A64U A138U | 0.79
G70U U112C A140G U143C | 0
U87A A107U U119A A140U | 0.05
A22G U112C U143C | 1.63
C16A U119C G135A | 0.81
A22U U52A A64C | 0.44
U13A A65G A77U | 0.07
U96C U108A A136G | 0
A67G U73A U132C | 0.22
U5C A22G A77U A129G | 1.45
U46A A77G A94G G114A | 0.32
U20C U73C U134C | 2.63
U13C A64U U100A | 0.34

Variant | self-cleavage
A50U A57U U100G U102A U109C G126A | 0
U39A U62A A77G U109C | 0
A59G A78U U130C | 0
A67G U81A A124G | 0.54
U20G U85C G127U | 0.29
C17A A67G U108C U132C | 0.88
U14C U73C A78G U132C | 1.15
A31G A77G G83A U100C A138G | 2.04
U15A A42G U130C A138G | 1.02
G54A U91C A124G A138G A140G | 0.06
A22G A121C U134C | 1.58
U1C A6U U115C | 1.72
U62C U81C U85A | 0
A64G U100C A138U | 0
U12C A117G A138G | 1.53
U45C G49U A138G A142G | 0.94
U73A U96C A107U U112A | 0.14
A42G U87C U112C | 0.18
A42G A65G U96C C113U U119C A136G | 0
U62A G75A U119C | 0
U14C U108C U115A U130C | 1.84
A42G C110A A140G | 1.03
U20A U46C A64G | 0.22
